Hit rate of the full screen: of about 300,000 compounds, about 1,100 (0.37%) were called active. The inconclusive results got no clear call from the source; some entries with a clear call stand among them for comparison.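 The calls were made as follows: active = inhibition past about -25% in most replicates, and total fluorescence under double the plate's negative control median (limit read from the data); inconclusive = replicates evenly split on the limit, or fluorescence at least double controls; inactive = too little inhibition in most replicates.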
molecular target: Zinc finger protein mex-5 (Caenorhabditis elegans) (UniProt Q9XUB2); test: MEX-5 zinc finger RNA-binding disruptors – biochemical, C. elegans, fluorescence polarization, MLPCN library, primary screen (AID 1832); conditions: MEX-5/FITC-TCR2 RNA binding, at 10 µM, stronger effect = lower value;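 also: 0% = DMSO and -100% = 5 µM competing unlabeled TCR2 RNA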
Sequence of UniProt Q9XUB2 (Q9XUB2 whole entry, looked up): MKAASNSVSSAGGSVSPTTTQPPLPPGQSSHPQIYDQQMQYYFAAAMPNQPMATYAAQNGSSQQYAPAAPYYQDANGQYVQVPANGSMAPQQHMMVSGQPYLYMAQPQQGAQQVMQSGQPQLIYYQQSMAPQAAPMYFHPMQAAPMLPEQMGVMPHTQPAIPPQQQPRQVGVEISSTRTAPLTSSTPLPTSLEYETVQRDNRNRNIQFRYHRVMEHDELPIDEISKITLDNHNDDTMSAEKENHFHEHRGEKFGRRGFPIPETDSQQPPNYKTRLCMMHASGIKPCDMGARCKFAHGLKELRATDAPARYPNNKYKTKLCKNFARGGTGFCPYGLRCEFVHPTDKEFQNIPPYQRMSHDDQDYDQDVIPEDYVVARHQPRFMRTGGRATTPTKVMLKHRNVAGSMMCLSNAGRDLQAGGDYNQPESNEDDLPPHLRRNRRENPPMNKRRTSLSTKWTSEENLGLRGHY

Q: `CN1CCc2c(sc(NC(=O)C3CCCCC3)c2C(N)=O)C1` was tested. Which activity score (negative = inhibition of binding) did it give?
A: inactive: -0.869%

Q: For `O=C(O)c1cc(Cl)ccc1-c1ccc(/C=C/c2cc(C(F)(F)F)[nH]c(=O)n2)o1`, which activity score (negative = inhibition of binding) is on record?
A: inconclusive: 11.4% [fluorescent]

Q: `CCOc1ccc(NC(=O)COc2ccccc2)c([N+](=O)[O-])c1` was tested. Which activity score (negative = inhibition of binding) did it give?
A: inconclusive: -16.2%

Q: With `CCCN1CCN(CCCNC(=O)c2cc3c(=O)[nH]c4ccccc4c3s2)CC1` as the compound, how does the activity score (negative = inhibition of binding) read?
A: inactive: 0.775%

Q: Which activity score (negative = inhibition of binding) does the source give for `Cc1cc2nc3c(=O)n(Cc4ccccc4)c(=O)[nH]c3nc2cc1N` here?
A: inconclusive: -131% [fluorescent]

Q: `COc1cc(C(c2c(C(=O)O)[nH]c3ccccc23)c2c(C(=O)O)[nH]c3ccccc23)ccc1OCc1ccccc1` was tested. Which activity score (negative = inhibition of binding) did it give?
A: inconclusive: -22.8%

Q: How did the activity score (negative = inhibition of binding) turn out when `CCOC(=O)NC(=O)CSc1nc(C)cc(C)c1C#N` was run?
A: inactive: 1.71%

Q: `COc1ccc(C2C3=C(CCCC3=O)N(CC(=O)O)C3=C2C(=O)CCC3)cc1Cl` was tested. Which activity score (negative = inhibition of binding) did it give?
A: inactive: -2.02%

Q: For `CC1C(=O)NN=C1C(=O)N/N=C/c1ccco1` (centres undefined), which activity score (negative = inhibition of binding) is on record?
A: active: -26%

Q: How did the activity score (negative = inhibition of binding) turn out when `Cc1cc2nc3c(=O)n(CCc4ccccc4)c(=O)[nH]c3nc2cc1N` was run?
A: inconclusive: -74.5% [fluorescent]

Q: `C=CCNC(=S)N1CCN(c2cccc(C(F)(F)F)c2)CC1` was tested. Which activity score (negative = inhibition of binding) did it give?
A: inconclusive: -14.5%

Q: `CC(C)/C=C1\CC/C(=C\c2ccc(N(C)C)cc2)C1=O` was tested. Which activity score (negative = inhibition of binding) did it give?
A: inconclusive: -18.3%

Q: `Oc1ccc(Nc2nc(N3CCCC3)c3ccccc3n2)cc1` was tested. Which activity score (negative = inhibition of binding) did it give?
A: inactive: -1.08%

Q: For `Cc1[nH]c2ccccc2c1/C=C/c1cc[n+](C)cc1`, which activity score (negative = inhibition of binding) is on record?
A: inconclusive: 49.5% [fluorescent]

Q: Which activity score (negative = inhibition of binding) does the source give for `CN(C)c1ccc(/C=N/N(CCC(=O)NC(C)(C)C)C2=NS(=O)(=O)c3ccccc32)cc1` here?
A: active: -53%

Q: `Cc1ccc(N(CC(=O)N2CCCC2)S(C)(=O)=O)cc1C` was tested. Which activity score (negative = inhibition of binding) did it give?
A: inactive: 0.93%

Q: Which activity score (negative = inhibition of binding) does the source give for `CCN(CC)C(=O)c1cc2c(=O)c3cc(Cl)ccc3oc2nc1C` here?
A: inconclusive: -21.9%

Q: With `CCn1c(=N)c(S(=O)(=O)c2ccc(C)cc2)cc2c(=O)n3ccccc3nc21` as the compound, how does the activity score (negative = inhibition of binding) read?
A: inconclusive: -8.74%

Q: For `CCOC(=O)c1c[nH]c2nc(C)ccc2c1=O`, which activity score (negative = inhibition of binding) is on record?
A: active: -47%

Q: For `Cc1ccc(/C=C(\C#N)C(=O)Nc2c(C)cccc2C)s1`, which activity score (negative = inhibition of binding) is on record?
A: active: -46.1%

Q: With `COc1ccc(-n2cc(CNCc3cnc4ccccn34)c(-c3cccc(F)c3)n2)cc1` as the compound, how does the activity score (negative = inhibition of binding) read?
A: active: -36.5%

Q: How did the activity score (negative = inhibition of binding) turn out when `COc1cc(OC)c(OC)cc1/C=C1/Cc2ccccc2C1=O` was run?
A: inconclusive: -23.5% [fluorescent]

Q: Which activity score (negative = inhibition of binding) does the source give for `NC(=O)CCC(C(=O)O)N1C(=O)c2ccc(O)cc2C1=O` (centres undefined) here?
A: inactive: -0.822%

Q: `CC1=NOC(=O)/C1=C\c1ccc2c(c1)OCO2` was tested. Which activity score (negative = inhibition of binding) did it give?
A: inconclusive: -15.4%

Q: With `Cc1ccc(S(=O)(=O)C(C#N)c2nc3ccccc3nc2N2CCC(C)CC2)cc1` (centres undefined) as the compound, how does the activity score (negative = inhibition of binding) read?
A: inconclusive: -23.5%

Q: `Cc1cc(C(F)(F)F)c2c(N)c(C(=O)Nc3cc(C)on3)sc2n1` was tested. Which activity score (negative = inhibition of binding) did it give?
A: inconclusive: -23.3%

Q: With `COc1ccc(Nc2nc3ccccc3nc2NS(=O)(=O)c2cccs2)cc1` as the compound, how does the activity score (negative = inhibition of binding) read?
A: inconclusive: -20.5%

Q: How did the activity score (negative = inhibition of binding) turn out when `N#Cc1c(N)nc(SCc2ccncc2)c(C#N)c1-c1cccs1` was run?
A: inconclusive: -21.6%

Q: Which activity score (negative = inhibition of binding) does the source give for `COc1ccc(NC(=O)c2sc3nc(-c4cccnc4)ccc3c2N)cc1OC` here?
A: inconclusive: -19.3%

Q: For `Oc1[nH]c2ccccc2c1N=NC(=S)N1CCOCC1`, which activity score (negative = inhibition of binding) is on record?
A: active: -40.8%

Q: Which activity score (negative = inhibition of binding) does the source give for `Cc1cc(C)n2[nH]c(=O)c(N=Nc3ccc(S(N)(=O)=O)cc3)c2n1` here?
A: inconclusive: -143% [fluorescent]

Q: For `COc1ccc(NC(=S)NNc2ccc(S(=O)(=O)Nc3ccccc3C(=O)O)cc2[N+](=O)[O-])cc1`, which activity score (negative = inhibition of binding) is on record?
A: active: -87.2%

Q: `O=C(O)CCCNc1cc(N2CCN(C(=O)c3ccco3)CC2)c2noc3c2c1C(=O)c1ccccc1-3` was tested. Which activity score (negative = inhibition of binding) did it give?
A: inconclusive: -7.76% [fluorescent]

Q: How did the activity score (negative = inhibition of binding) turn out when `Cn1c(=O)c2cc(NCc3ccccc3)nnc2n(C)c1=O` was run?
A: inactive: -2.63%

Q: With `Cc1cc(C(=O)CSc2ccccc2)cc(C)c1O` as the compound, how does the activity score (negative = inhibition of binding) read?
A: inactive: -2.79%

Q: With `Cn1nc([N+](=O)[O-])c(C(C#N)c2nc3ccccc3n2C)c(Cl)c1=O` (centres undefined) as the compound, how does the activity score (negative = inhibition of binding) read?
A: active: -28.3%

Q: For `O=C(O)C1CC(=O)N(CCc2ccc(F)cc2)C1` (centres undefined), which activity score (negative = inhibition of binding) is on record?
A: inactive: 1.25%

Q: `Cc1nc(N/N=C/c2ccc(Br)cc2)cc(N2CCOCC2)n1` was tested. Which activity score (negative = inhibition of binding) did it give?
A: inactive: 1.82%

Q: With `COc1cc(C=C2C(=O)c3ccccc3C2=O)ccc1O` as the compound, how does the activity score (negative = inhibition of binding) read?
A: inactive: -2.19%

Q: Which activity score (negative = inhibition of binding) does the source give for `O=C(O)c1ccccc1-c1ccc(/C=C/c2cc(C(F)(F)F)[nH]c(=O)n2)o1` here?
A: inconclusive: -17.6% [fluorescent]

Q: `O=c1c(/C=C(\O)c2ccc(F)cc2)nc2ccccc2n1-c1ccccc1` was tested. Which activity score (negative = inhibition of binding) did it give?
A: inconclusive: -77.5% [fluorescent]

Q: With `Cc1ccc(C)c2c1c1ccccc1n2C` as the compound, how does the activity score (negative = inhibition of binding) read?
A: inactive: 0.0579%

Q: `CC(=O)N/C(=C\c1ccccc1)C(=O)OCC(=O)N(CC(C)C)c1c(N)n(Cc2ccccc2)c(=O)[nH]c1=O` was tested. Which activity score (negative = inhibition of binding) did it give?
A: inactive: -0.43%

Q: With `COc1ccc(-c2ccc(-c3noc(-c4cccs4)n3)c(OC)n2)cc1` as the compound, how does the activity score (negative = inhibition of binding) read?
A: inactive: -4.08%

Q: How did the activity score (negative = inhibition of binding) turn out when `Cc1ccc(Cn2c(=N)c(C(=O)NCC3CCCO3)cc3c(=O)n4ccccc4nc32)cc1` (centres undefined) was run?
A: inconclusive: -24.5%

Q: For `Cc1c(O)ccc2c(CN3CCN(CCO)CC3)cc(=O)oc12`, which activity score (negative = inhibition of binding) is on record?
A: inactive: -2.12%

Q: For `O=c1cc(CN2CCCc3ccccc32)nc2sccn12`, which activity score (negative = inhibition of binding) is on record?
A: inconclusive: -101% [fluorescent]

Q: How did the activity score (negative = inhibition of binding) turn out when `Oc1ccc(Br)cc1C=Nc1cccn2cc(-c3ccccc3)nc12` was run?
A: inconclusive: -24.7%

Q: Which activity score (negative = inhibition of binding) does the source give for `C/C(=N\Nc1ccc([N+](=O)[O-])cc1[N+](=O)[O-])c1cc2c(ccc3ccccc32)oc1=O` here?
A: inconclusive: -15.3%

Q: Which activity score (negative = inhibition of binding) does the source give for `Cc1cccc(N=C2NC(=O)CS2)c1` here?
A: inconclusive: -25.5%

Q: Which activity score (negative = inhibition of binding) does the source give for `O=c1oc2ccc(Cl)cc2nc1/C=C(\O)c1cccs1` here?
A: active: -66.6%

Q: How did the activity score (negative = inhibition of binding) turn out when `COc1ccccc1CC(=O)NCc1csc(-c2cccs2)n1` was run?
A: inactive: 1.57%

Q: How did the activity score (negative = inhibition of binding) turn out when `CCCCNc1c2c3c(cccc3n(C)c1=O)C(=O)c1ccccc1-2` was run?
A: inconclusive: -111% [fluorescent]

Q: With `CC(C)(C)OC(=O)NCCCC1=CC2=CC(=O)C(C)(OC(=O)c3ccc(Cl)nc3)C(=O)C2=CO1` (centres undefined) as the compound, how does the activity score (negative = inhibition of binding) read?
A: inconclusive: -12.7%

— PubChem BioAssay AID1832 (Broad Institute, 2009)
